From publication PMC3050860
No constants are given. Whether binding was seen depends on the method and setting. For some of these results: In cells and extracts the contact can be indirect. Some results given as binding are weak or reduced against the parent protein; the word gives no strength.

The chains behind the UniProt entries cited, without tags or fusion partners. Where a name states a change or a piece, a line headed by the entry shows the natural chain unless it says otherwise. A line that says so, or that is headed by a name, gives the form on record, which may keep a tag or linker. Residues count along the entry.
UniProt Q9UKL3: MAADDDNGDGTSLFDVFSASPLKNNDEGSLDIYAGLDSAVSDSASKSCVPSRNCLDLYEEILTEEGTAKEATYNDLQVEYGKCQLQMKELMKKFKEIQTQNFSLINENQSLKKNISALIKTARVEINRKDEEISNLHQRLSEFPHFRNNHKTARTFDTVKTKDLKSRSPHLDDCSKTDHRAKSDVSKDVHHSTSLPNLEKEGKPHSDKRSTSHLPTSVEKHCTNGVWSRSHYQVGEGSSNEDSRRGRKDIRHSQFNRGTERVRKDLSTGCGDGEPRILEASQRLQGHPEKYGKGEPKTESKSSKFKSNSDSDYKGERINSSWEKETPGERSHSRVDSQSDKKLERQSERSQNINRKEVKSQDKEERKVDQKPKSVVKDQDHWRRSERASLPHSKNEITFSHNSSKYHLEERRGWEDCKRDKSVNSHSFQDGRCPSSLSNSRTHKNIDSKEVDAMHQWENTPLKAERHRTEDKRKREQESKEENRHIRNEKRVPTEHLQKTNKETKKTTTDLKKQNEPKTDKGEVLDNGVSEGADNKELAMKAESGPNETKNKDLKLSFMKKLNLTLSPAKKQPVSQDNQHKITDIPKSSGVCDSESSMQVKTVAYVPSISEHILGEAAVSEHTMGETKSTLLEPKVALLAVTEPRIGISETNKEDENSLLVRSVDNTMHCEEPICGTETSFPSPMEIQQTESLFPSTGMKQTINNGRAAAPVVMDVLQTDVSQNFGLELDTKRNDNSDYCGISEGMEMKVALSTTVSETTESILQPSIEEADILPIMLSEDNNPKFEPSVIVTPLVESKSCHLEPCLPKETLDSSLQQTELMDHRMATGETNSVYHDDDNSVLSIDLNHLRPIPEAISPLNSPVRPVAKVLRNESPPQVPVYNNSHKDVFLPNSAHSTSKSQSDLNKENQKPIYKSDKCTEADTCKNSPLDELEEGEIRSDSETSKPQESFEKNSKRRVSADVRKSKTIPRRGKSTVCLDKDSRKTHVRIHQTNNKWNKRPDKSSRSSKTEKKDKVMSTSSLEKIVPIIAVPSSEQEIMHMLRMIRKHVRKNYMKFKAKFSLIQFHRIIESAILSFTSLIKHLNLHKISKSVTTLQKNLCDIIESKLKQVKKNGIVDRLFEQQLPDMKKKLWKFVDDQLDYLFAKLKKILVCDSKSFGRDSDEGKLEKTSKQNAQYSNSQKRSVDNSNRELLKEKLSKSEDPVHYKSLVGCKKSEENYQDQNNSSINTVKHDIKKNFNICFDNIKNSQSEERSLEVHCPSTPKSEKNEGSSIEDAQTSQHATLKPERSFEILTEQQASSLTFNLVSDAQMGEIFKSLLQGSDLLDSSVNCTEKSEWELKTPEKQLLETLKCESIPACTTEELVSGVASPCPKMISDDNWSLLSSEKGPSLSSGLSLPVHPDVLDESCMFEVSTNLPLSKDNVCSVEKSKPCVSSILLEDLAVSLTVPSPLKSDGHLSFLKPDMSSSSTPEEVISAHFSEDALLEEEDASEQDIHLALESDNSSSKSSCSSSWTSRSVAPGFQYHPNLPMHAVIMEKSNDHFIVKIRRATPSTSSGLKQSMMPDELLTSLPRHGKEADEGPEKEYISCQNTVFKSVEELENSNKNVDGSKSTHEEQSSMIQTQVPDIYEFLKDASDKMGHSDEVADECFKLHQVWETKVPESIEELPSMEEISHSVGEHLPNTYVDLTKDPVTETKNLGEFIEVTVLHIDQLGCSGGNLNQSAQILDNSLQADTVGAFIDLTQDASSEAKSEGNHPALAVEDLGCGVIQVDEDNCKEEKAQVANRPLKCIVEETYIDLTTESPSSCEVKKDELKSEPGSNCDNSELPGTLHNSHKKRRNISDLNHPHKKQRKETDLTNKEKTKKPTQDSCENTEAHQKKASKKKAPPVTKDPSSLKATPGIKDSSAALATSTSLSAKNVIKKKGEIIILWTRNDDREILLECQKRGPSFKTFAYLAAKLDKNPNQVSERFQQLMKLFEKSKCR
Gal4p-DBD-FLASH-A (pDBT-FLASH-A), amino acids 1-304 of FLASH: residues 1-304 of Q9UKL3
Gal4p-DBD-FLASH-D (pDBT-FLASH-D), amino acids 1508-1982 of human FLASH: residues 1508-1982 of Q9UKL3
GST-FLASH-D-KR (pGEX-6p-2-FLASH-D-KR), amino acid residues 1508-1982 with K1813R (Q9UKL3, form named): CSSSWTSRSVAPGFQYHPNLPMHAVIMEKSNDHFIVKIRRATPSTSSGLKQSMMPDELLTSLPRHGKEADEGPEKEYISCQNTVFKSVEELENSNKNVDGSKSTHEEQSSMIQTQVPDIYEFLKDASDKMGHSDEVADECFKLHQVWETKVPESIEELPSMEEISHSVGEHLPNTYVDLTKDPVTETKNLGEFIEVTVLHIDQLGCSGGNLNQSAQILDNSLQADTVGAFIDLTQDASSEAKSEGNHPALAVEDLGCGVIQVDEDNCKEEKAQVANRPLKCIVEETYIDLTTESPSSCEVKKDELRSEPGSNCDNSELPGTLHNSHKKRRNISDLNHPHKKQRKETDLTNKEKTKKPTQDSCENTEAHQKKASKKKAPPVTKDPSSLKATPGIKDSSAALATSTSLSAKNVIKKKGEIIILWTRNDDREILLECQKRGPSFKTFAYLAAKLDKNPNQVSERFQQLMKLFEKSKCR
UniProt P10242: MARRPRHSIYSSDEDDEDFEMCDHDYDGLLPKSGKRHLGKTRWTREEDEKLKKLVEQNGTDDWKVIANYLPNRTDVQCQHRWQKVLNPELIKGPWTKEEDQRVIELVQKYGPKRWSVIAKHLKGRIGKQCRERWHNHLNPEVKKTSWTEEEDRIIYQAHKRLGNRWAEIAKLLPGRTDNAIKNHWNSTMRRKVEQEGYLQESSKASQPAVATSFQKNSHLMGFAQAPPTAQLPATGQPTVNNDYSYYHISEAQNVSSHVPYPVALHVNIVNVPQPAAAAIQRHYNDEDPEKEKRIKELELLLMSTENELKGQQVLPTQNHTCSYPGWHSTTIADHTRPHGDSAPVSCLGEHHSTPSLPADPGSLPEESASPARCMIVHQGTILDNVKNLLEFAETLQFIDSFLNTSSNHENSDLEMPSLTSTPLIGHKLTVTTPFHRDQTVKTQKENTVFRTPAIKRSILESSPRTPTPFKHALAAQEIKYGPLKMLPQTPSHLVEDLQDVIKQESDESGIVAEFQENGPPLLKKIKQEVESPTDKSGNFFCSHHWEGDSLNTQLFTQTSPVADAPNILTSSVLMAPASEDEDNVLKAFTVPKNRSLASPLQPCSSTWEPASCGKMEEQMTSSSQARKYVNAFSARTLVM
Gal4p-DBD-c-Myb[233-640]-HA (pCIneoB-GBD2-hcM[233-640]-HA), c-Myb lacking its own DBD in fusion with Gal4p-DBD: residues 233-640 of P10242
UniProt O75925: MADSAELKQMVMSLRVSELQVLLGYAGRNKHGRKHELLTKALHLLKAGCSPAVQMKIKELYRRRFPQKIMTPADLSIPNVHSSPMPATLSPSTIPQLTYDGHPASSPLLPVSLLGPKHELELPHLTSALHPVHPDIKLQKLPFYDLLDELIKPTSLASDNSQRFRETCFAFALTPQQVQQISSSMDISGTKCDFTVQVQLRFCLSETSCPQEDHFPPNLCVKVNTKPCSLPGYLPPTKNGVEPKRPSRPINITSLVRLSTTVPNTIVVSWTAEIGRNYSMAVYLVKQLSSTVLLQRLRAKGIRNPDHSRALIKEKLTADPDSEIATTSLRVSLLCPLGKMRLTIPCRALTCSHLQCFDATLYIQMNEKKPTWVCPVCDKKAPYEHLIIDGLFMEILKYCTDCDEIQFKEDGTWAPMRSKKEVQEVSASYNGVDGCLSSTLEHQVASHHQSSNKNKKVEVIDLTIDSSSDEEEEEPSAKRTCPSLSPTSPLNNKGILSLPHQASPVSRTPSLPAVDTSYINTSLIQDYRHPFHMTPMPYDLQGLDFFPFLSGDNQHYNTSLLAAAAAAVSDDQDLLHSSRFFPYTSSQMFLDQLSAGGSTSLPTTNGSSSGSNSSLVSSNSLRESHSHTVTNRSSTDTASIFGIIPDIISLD

Tests used:
[1] = target: GST-FLASH-D-KR (pGEX-6p-2-FLASH-D-KR), amino acid residues 1508-1982 with K1813R (human) (UniProt Q9UKL3); assay: pull-down; GST fusion proteins from E. coli incubated with lysate of transfected COS-1 cells; PIAS1 detected by anti-FLAG immunoblot; only the target purified
[2] = target: GST-FLASH-D (pGEX-6p-2-FLASH-D), amino acid residues 1508-1982 (human) (UniProt Q9UKL3); assay: as above
[3] = target: GST-FLASH-A (pGEX-6p-2-FLASH-A), amino acid residues 1-304 (human) (UniProt Q9UKL3); assay: as above
[4] = target: Gal4p-DBD-c-Myb[233-640]-HA (pCIneoB-GBD2-hcM[233-640]-HA), c-Myb lacking its own DBD in fusion with Gal4p-DBD (human) (UniProt P10242); assay: chromatin immunoprecipitation (ChIP-qPCR); HEK 293 reporter cell line with integrated Gal4p-responsive 5×GRE promoter; formaldehyde cross-linked; occupancy of 3×FLAG-PIAS1 on the promoter with or without the Gal4p-DBD fusion partner; NCOA5 intron as control
[5] = target: Gal4p-DBD-FLASH, full-length wild-type FLASH fused to the Gal4p DNA-binding domain (pCIneo-GBD1-FLASH) (not stated (human or mouse cDNA cloned)) (UniProt Q9UKL3); assay: as above
[6] = target: Gal4p-DBD-FLASH-A (pDBT-FLASH-A), amino acids 1-304 of FLASH (human) (UniProt Q9UKL3); assay: two-hybrid; directed mating: bait (pDBT) in AH109, prey (pGADT7) in Y187; activation of the HIS3 reporter (SC-L-W-H); each mating in duplicate
[7] = target: Gal4p-DBD-FLASH-D (pDBT-FLASH-D), amino acids 1508-1982 of human FLASH (human) (UniProt Q9UKL3); assay: as above
[8] = target: Gal4p-DBD-c-Myb, full-length human c-Myb (pDBT-c-Myb) (human) (UniProt P10242); assay: as above
[9] = target: Gal4p-DBD-FLASH-D (pDBT-FLASH-D), amino acids 1508-1982 of human FLASH (human) (UniProt Q9UKL3); assay: two-hybrid; library screening: pDBT-FLASH-D as bait against a human bone marrow cDNA library (Clontech); positive clones validated by HIS3, ADE2 and LacZ reporters

| binding [1] | binding [2] | binding [3] | binding [4] | binding [5] | binding [6] | binding [7] | binding [8] | binding [9] | Substance |
| --- | --- | --- | --- | --- | --- | --- | --- | --- | --- |
| binds | binds | – | – | – | – | – | – | – | 3×FLAG-PIAS1 RING finger mutant (C346S/C351S/H353A/C356S) (pCIneoB-3×FLAG-PIAS1 RING finger mutant) (from UniProt O75925 1-651) |
| binds | binds | binds | binds | binds | – | – | – | – | 3×FLAG-PIAS1, full-length human PIAS1 wild-type (pCIneoB-3×FLAG-PIAS1) (from UniProt O75925 1-651) |
| – | – | – | – | – | binds | binds | binds | – | Gal4p-AD-PIAS1 full length (pGADT7-PIAS1) (from UniProt O75925 1-651) |
| – | – | – | – | – | – | binds | no binding | binds | Gal4p-AD-PIAS1[1-501] (pGADT7-PIAS1[1-501]) (from UniProt O75925 1-501) (domain or fragment) |
